# Out of some 350,000 compounds screened, about 260 (0.074%) were called active. The shares of active, inactive and inconclusive entries below differ from those in the screen. The call rests on the fitted dose curve; in most records, active means well fitted inhibition curve with a large enough effect; inconclusive means small, poorly fitted or top-dose-only effect; inactive means no such curve, though single readings can be large or run the other way. A potency beside an inconclusive call is a rough fit, not a confirmed value.
# Target: Ferritin light chain (Equus caballus) (UniProt P02791)
# Experiment: qHTS Assay for Identification of Novel General Anesthetics; further: nearly all actives have a fitted effect of over 20% in size
# Details: apoferritin/1-aminoanthracene competitive binding, fluorescence; activity change, negative = displacement: at 77.5 µM (top of the series)
# Summary of the method: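 Concentration-response curves derived by four-parameter Hill fitting of normalized fluorescence, where compounds displaced 1-AMA from 10 uM horse apoferritin following a brief 10 min room-temperature incubation; propofol titration acted as positive control.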
# On the % scale 0 is the no-effect control and ±100 the full control effect; potency means the concentration at half of the fitted maximal effect; tags describe the fitted curve by direction and shape.
# UniProt P02791, sequence (P02791 whole entry, looked up): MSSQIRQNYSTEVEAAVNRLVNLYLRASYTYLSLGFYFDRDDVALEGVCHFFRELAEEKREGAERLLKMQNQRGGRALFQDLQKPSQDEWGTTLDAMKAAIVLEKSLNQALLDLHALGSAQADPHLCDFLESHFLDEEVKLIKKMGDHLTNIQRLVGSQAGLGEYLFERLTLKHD
SMILES,Potency,"activity change, negative = displacement"
O=c1cc(NS(=O)(=O)c2ccccc2)nc(SCc2ccccc2Cl)[nH]1,"inconclusive: 35.5 µM [inhibitor, single point]",–
COCc1cc(C)nc(N2CCN(c3ccccc3)CC2)c1C#N,–,inactive: 3.12%
COCCn1c(SCc2nc3sc(C(=O)OC)c(C)c3c(=O)[nH]2)nc2ccccc21,–,inactive: -13.4%
COC(=O)C(NNc1ccccc1)(NC(=O)c1ccccc1F)C(F)(F)F (configuration not stated),"inconclusive: 25.1 µM [inhibitor, partial curve]",–
COCCNC(=O)c1ccc2c(c1)NC(=O)CS2,–,inactive: -4.6%
O=c1c2ccccc2oc2ncccc12,–,inactive: -16.1%
CC(=O)c1cccc(NC(=O)/C=C/c2ccc([N+](=O)[O-])s2)c1,–,inactive: -3.18%
Cc1ccc(S(=O)(=O)Cc2ccc(C(=O)N3CCN(c4cccc(C)c4C)CC3)o2)cc1,inactive,–
O=[N+]([O-])c1cc(/C=N/O)ccc1Oc1cccc(Cl)c1,"inconclusive: 31.6 µM [inhibitor, partial curve]",–
CN(C)C(=O)c1ccc(-c2nc(Nc3ccc(F)cc3)c3ccccc3n2)cc1,"inconclusive: 14.1 µM [inhibitor, partial curve]",–
c1ccc(N2CCN(c3ccccc3)C2c2cccnc2)cc1,"inconclusive: 35.5 µM [inhibitor, partial curve]",–
O=C(c1ccccc1)c1cccc(NC(=O)c2ccc(Br)o2)c1,"inconclusive: 35.5 µM [inhibitor, partial curve]",–
COc1ccc(C(=O)N2N=C(c3cccc(OC)c3)CC2(O)C(F)(F)F)cc1 (configuration not stated),"inconclusive: 22.4 µM [inhibitor, partial curve]",–
Cn1c2ccccc2c(=O)c2c(=O)n(C3CCCCC3)c(-c3ccco3)nc21,–,inactive: -9.61%
CCn1c(SCC(=O)Nc2ccc(OCc3ccccc3)cc2)nnc1-c1ccco1,"inconclusive: 6.31 µM [inhibitor, full curve]",–
CC1=C(C(=O)OCC(C)C)C23C(=O)c4ccccc4C2(O1)OC(N)=C3C#N (configuration not stated),"inconclusive: 28.2 µM [inhibitor, partial curve]",–
COc1ccc(N=C2S/C(=C\c3ccc(OCC(=O)O)cc3)C(=O)N2CCc2c[nH]c3ccccc23)cc1,"inconclusive: 31.6 µM [inhibitor, partial curve]",–
CC1CCCN(C(=O)CSCC(=O)N=c2sc3ccccc3n2C)C1 (configuration not stated),"inconclusive: 11.2 µM [inhibitor, partial curve]",–
Cc1cc(Nc2ccc(C)c(Cl)c2)n2nc(Cc3ccccc3)nc2n1,"inconclusive: 20 µM [inhibitor, partial curve]",–
CC1OC(O[C@H]2CC[C@]3(C)C4C=C[C@]56OC[C@@]7(CC[C@@H](C)[C@H](C)C75)[C@H](O)C[C@@]6(C)[C@]4(C)CC[C@H]3C2(C)C)C(OC2OC(CO)C(O)C(O)C2OC2OCC(O)C(O)C2O)C(O)C1O (some centres not stated),–,inactive: -11.1%
CCOc1ccc(NC(=O)CSc2nc(-c3ccc(OC)cc3)nc3c2Cc2c(CO)cnc(C)c2O3)cc1,"inconclusive: 50.1 µM [inhibitor, single point]",–
O=C(N/N=C/c1ccco1)C1CC1(c1ccccc1)c1ccccc1 (configuration not stated),"inconclusive: 35.5 µM [inhibitor, partial curve]",–
Cn1cnnc1SCC(=O)N1CCc2ccccc21,"inconclusive: 56.2 µM [inhibitor, single point]",–

SMILES,Potency,"activity change, negative = displacement"
Cc1ccc(S(=O)(=O)N2CCC(C(=O)Nc3nnc(C45CC6CC(CC(C6)C4)C5)s3)CC2)cc1,"inconclusive: 39.8 µM [inhibitor, partial curve]",–
COc1cccc(CN(C(=O)Cn2nnc(-c3ccccc3F)n2)C(C(=O)NC(C)(C)C)c2ccncc2)c1 (configuration not stated),"inconclusive: 56.2 µM [inhibitor, single point]",–
CCOc1cc(C)c(S(=O)(=O)N2CCCCC2)cc1C,"inconclusive: 22.4 µM [inhibitor, partial curve]",–
Cc1cc(C)n(-c2cc(N3CCN(C(=O)c4ccc(C(C)(C)C)cc4)CC3)ccc2[N+](=O)[O-])n1,"inconclusive: 28.2 µM [inhibitor, partial curve]",–
COc1ccc(NC(=O)C2CSC(C)(C)N2C=O)cc1 (configuration not stated),"inconclusive: 39.8 µM [inhibitor, partial curve]",–
O=C(O)c1ccc(/C=C2/SC(=S)N(Cc3ccccc3)C2=O)cc1,–,inactive: -3%
CC1=C(C#N)CCC(=O)N1Cc1ccc(C)cc1,"inconclusive: 28.2 µM [inhibitor, partial curve]",–
Cc1c(NCc2nc3ccccc3[nH]2)c(=O)n(-c2ccccc2)n1C,"inconclusive: 39.8 µM [inhibitor, single point]",–
O=C(Nc1ccccc1)O/N=C/c1ccccc1Cl,"inconclusive: 28.2 µM [inhibitor, partial curve]",–
CNC(=S)NNC(=O)c1cc(-c2cccnc2)nc2ccccc12,"inconclusive: 39.8 µM [inhibitor, single point]",–
O=C(CCc1c[nH]c2ccccc12)N/N=C/c1ccc2c(c1)OCO2,"inconclusive: 28.2 µM [inhibitor, partial curve]",–
CCCN1CCC(NC(=O)Nc2ccccc2C(=O)OC)CC1,–,inactive: -17.1%
CCn1nccc1C(=O)Nc1ccc(Cl)cc1Cl,–,inactive: -0.248%
O=c1nccc(N/N=C/c2ccccc2)[nH]1,"inconclusive: 50.1 µM [inhibitor, single point]",–
CCCCOc1ccc(C(C)NC(=O)CCS(=O)(=O)Cc2ccccc2F)cc1 (configuration not stated),–,inactive: 3.64%
COc1cccc(-c2nc(C=O)cs2)c1,"inconclusive: 31.6 µM [inhibitor, partial curve]",–
Cc1cc(=O)c2c(O)c3c(O)cc(O)c4c5c(O)cc(O)c6c(O)c7c(=O)cc(C)c8c1c2c(c34)c(c65)c78,"inconclusive: 28.2 µM [inhibitor, partial curve]",–
COc1ccc([N+](=O)[O-])cc1NC1CCCCC1,"inconclusive: 39.8 µM [inhibitor, partial curve]",–
C=CCN(CC=C)S(=O)(=O)c1ccc(NC(=S)NC(=O)c2ccc(-c3ccccc3)cc2)cc1,"inconclusive: 14.1 µM [inhibitor, partial curve]",–
CC(=O)c1c(C)[nH]c(C(=O)OCC(=O)NCCc2ccc(Cl)cc2)c1C,"inconclusive: 28.2 µM [inhibitor, partial curve]",–
CN(C)c1ccc(N=Nc2ccccc2C(=O)OCC(=O)NCC2CCCCC2)cc1,"inconclusive: 35.5 µM [inhibitor, partial curve]",–
COc1ccc(-n2c(CN3CCC(C(N)=O)CC3)nc3ccc([N+](=O)[O-])cc3c2=O)c(OC)c1,"inconclusive: 25.1 µM [inhibitor, partial curve]",–
CNc1nc(C)c([N+](=O)[O-])c(Nc2ccc(OC)cc2)n1,–,inactive: 6.34%

SMILES,Potency,"activity change, negative = displacement"
CC(C)(C)c1ccc(-c2nnc(SCCN3C(=O)c4ccccc4C3=O)o2)cc1,"inconclusive: 39.8 µM [inhibitor, partial curve]",–
CC1(C)CC(=O)C=C(Nc2ccc(Cl)c(Br)c2)C1,"inconclusive: 31.6 µM [inhibitor, single point]",–
CCn1c(CSc2nc3ccccc3n2C)nc2ccccc21,"inconclusive: 39.8 µM [inhibitor, partial curve, poor fit]",–
CCCCN(C(=O)c1cccc2c(=O)c(C)c(-c3ccccc3)oc12)c1ccccc1,"inconclusive: 39.8 µM [inhibitor, single point]",–
CCN1/C(=C/c2ccc3cc(C)ccc3[n+]2CC)Sc2cc(C)c(C)cc21,–,inactive: -12.3%
CCCn1c(SCC(=O)NNC(=O)c2ccccc2)nnc1-c1cccnc1,–,inactive: -3.25%
Cc1c(/C=N\NC(=O)C2COc3ccc(C(C)(C)C)cc3O2)c2ccccc2n1C (configuration not stated),"inconclusive: 12.6 µM [inhibitor, partial curve]",–
COc1cc(C2Nc3ccccc3C(=O)N2c2ccc(Cl)cc2)c(Cl)cc1OCC(=O)O (configuration not stated),–,inactive: 144%
CCCCOc1ccc(C(=O)NNC(=O)C2C3C=CC(C3)C2C(=O)O)cc1 (configuration not stated),"inconclusive: 22.4 µM [inhibitor, partial curve]",–
CCOC(=O)/C=C1\SCC(=O)N1CC(=O)Nc1ccc2c(c1)CCC2,"inconclusive: 25.1 µM [inhibitor, partial curve]",–
CCn1cc(C(=O)N2CCN(c3ccc(OC)cc3)CC2)c(=O)c2cc(S(=O)(=O)N3CCCCC3)ccc21,"inconclusive: 20 µM [inhibitor, partial curve]",–
Cc1nc(NC(=O)CCc2ccccc2)ccc1Br,"inconclusive: 44.7 µM [inhibitor, partial curve]",–
CC(C)c1ccc(NS(=O)(=O)c2ccc3[nH]cc(C(=O)NC4CCCC4)c(=O)c3c2)cc1,"inconclusive: 7.94 µM [inhibitor, full curve]",–
CCCCn1c(=O)[nH]c2nc3cc(N)ccc3nc2c1=O,–,inactive: 271%
CCn1c(=O)cc(SCC(=O)Nc2ccc(C)c(F)c2)c2ccccc21,"inconclusive: 25.1 µM [inhibitor, partial curve]",–
Cc1ccccc1CNC(=O)c1ccc(NC(=O)c2nsc3ccccc23)cc1,"inconclusive: 11.2 µM [inhibitor, partial curve]",–
O=C1CC(c2ccsc2)c2ccc3ccccc3c2N1 (configuration not stated),"inconclusive: 8.91 µM [inhibitor, partial curve]",–
Cc1ccc(NC(=O)Cn2nc(C)c([N+](=O)[O-])c2C)cc1C,–,inactive: -5.15%
Cc1ccc(-c2nc(C(=O)NCc3ccc(Cl)cc3)c3n2CCCCC3)cc1,–,inactive: 46.3%
CC(=O)C1=C(OC(=O)C(C)C)c2ccccc2S(=O)(=O)N1Cc1ccccc1,–,inactive: -21.2%
O=C(CSCc1ccc([N+](=O)[O-])cc1)Nc1ccc(S(=O)(=O)N2CCCCCC2)cc1,"inconclusive: 20 µM [inhibitor, partial curve]",–

# From PubChem BioAssay AID485281 (National Center for Advancing Translational Sciences (NCATS), 2010)
